T1: cynomolgus tissue factor (cynomolgus TF, Sino Bio #90885-C08H) (cynomolgus monkey, UniProt P13726 33-251 (human entry))
T1 construct: bought recombinant antigen; also called cyno TF
T1 chain: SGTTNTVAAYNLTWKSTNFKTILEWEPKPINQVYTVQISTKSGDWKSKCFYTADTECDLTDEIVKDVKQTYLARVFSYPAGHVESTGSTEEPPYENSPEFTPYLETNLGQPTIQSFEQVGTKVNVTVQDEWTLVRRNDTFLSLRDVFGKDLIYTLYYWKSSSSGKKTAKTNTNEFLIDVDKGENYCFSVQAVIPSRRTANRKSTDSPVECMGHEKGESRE

B1: SRP2842-B01 scFvFc (Fc fusion)
chain: MSKNKQSVEESEGGLFKPADTLTLTCTASGFSISSYDMSWVRQAPGNGLEWIGIIGSNGRTYYPNWAKSRSTITRNTNENTVTLKMTSLTAADTATYFCARGLYDGTGNIWGPGTLVTVSSGGGGSGGGGSGGGGSELVMTQTPSPVSAAVGSTVTISCQASQSVYGNNWLSWFQQKPGQPPKLLIYGASKLASGVSSRFKGSGSGTQFTLTISGVQCDDAATYYCQGTYYSGDWYFAFGGGTELEILAAAGSDQ[human IgG1 Fc with changes not given here]GSGDYKDDDDKGSG
notes: rabbit scFv-Fc with C-terminal Flag and His6 tags; His6 follows; also called 2842-B01 (scFvFc parent)
B2: SRP2842-G04 scFvFc (Fc fusion)
chain: MSKNKQSVEESEGGLFKPTDTLTLTCTVSGFSLSYYGVSWVRQAPGNGLEWIGTIDSSGRTYYASWANGRFTISNDNAPNTVSLQVNSLAAADTATYFCARDFYGWNSGALDIWGPGTLVTVSSGGGGSGGGGSGGGGSELDLTQTASPVSAAVGGTVTINCQASQSVYSNKYLSWYQQKPGQPPKLLIYKASTLASGVPSRFSGSGFGTEFTLTISDVQCDDAATYYCAAAYSDDSDTAFGGGTKVVVEAAAGSDQ[human IgG1 Fc with changes not given here]GSGDYKDDDDKGSG
notes: rabbit scFv-Fc with C-terminal Flag and His6 tags; His6 follows; also called 2842-G04 (scFvFc parent)

How the values were obtained:
[1] = molecular target: T2, human tissue factor on cells (human, UniProt P13726 33-295); experiment: flow cytometry on BxPC3 cells (TF positive), one-site fit of MFI
T2 construct: cell-surface TF, transfected (HEK293T-humanTF) or endogenous (tumour lines, keratinocytes); the cell line is named under assay; also called HEK293T-humanTF; TF on BxPC3, primary human keratinocytes, NCI-H292, HCC1954, NCI-H1975
Description: HEK293T, BxPC3 cells (TF positive) and NCI-H1703 (TF negative) cells were obtained from ATCC (American Type Culture Collection) and maintained in DMEM: F12 (1:1), high glucose (Corning) supplemented with 10% heat-inactivated fetal bovine serum (ThermoScientific), 1× Penicillin/Streptomycin (Corning) and 2 mmol glutamax (Thermo Fisher Scientific). To generate cells that stably expressing human tissue factor (HEK293T-humanTF) or cynomolgus tissue factor (HEK293T-cynoTF), HEK293T cells were transfected with plasmid vectors that contain the corresponding protein sequence and stable clones were selected with puromycin.
For a fluorescence-activated cell sorting (FACS) cell-binding assay, cells were collected by Accutase and counted by the Vi-CELL Cell Viability Analyzersharvested and, then re-suspended in FACS buffer (DPBS buffer supplemented with 1% bovine serum albumin). A total of 200,000 cells in 100 μL were incubated on ice with 100 μL of anti-TF antibodies in each well of a 96-well plate. Cells were washed twice with ice-cold FACS buffer and then incubated on ice for 60 mins with 5 μg/mL Alexa 647-labeled donkey anti-human Fc antibody (Jackson ImmunoResearch). Unstained cells and cells stained with secondary antibody alone were used as controls. Cells were washed twice with FACS buffer and analyzed using a BD FACS Canto system. Geometric mean fluorescence intensities (MFI) were fitted using non-linear regression analysis with one site specific binding equation on GraphPad Prism (GraphPad Software; La Jolla, CA).

[2] = molecular target: T1, cynomolgus tissue factor (cynomolgus …); experiment: Biacore SPR, single-point off-rate (100 nM antigen), scFvFc captured on anti-Fc
Procedure: (§1) Anti-Fc polyclonal antibodies were immobilized onto a CM4 chip (Cytiva #BR100534) using amine coupling chemistry (Human Antibody Capture Kit, Cytiva #BR100839). The immobilization steps were carried out at a flow rate of 25 μL/min in 1×HBS-EP+buffer (Cytiva #BR100669). The sensor surfaces were activated for 7 min with a mixture of N-hydroxysuccinimide (NHS, 0.05 M) and 1-ethyl-3-(3-dimethylaminopropyl)-carbodiimide (EDC, 0.2 M). The anti-Fc polyclonal antibodies were injected over all 4 flow cells at a concentration of 25 μg/mL in 10 mM sodium acetate, pH 4.5, for 7 min. Ethanolamine (1 M, pH 8.5) was injected for 7 min to block any remaining activated groups.
(§2) Off-rate and kinetic binding experiments were performed at 25° C. using 1×HBS-EP+buffer. Antibodies were injected over the anti-Fc surface at a concentration of 3 μg/mL for 12 seconds at a flow rate of 10 μL/min on flow cells 2, 3 and 4, followed by a buffer wash for 30 seconds at the same flow rate. Single point off-rate analysis was carried out using an antigen concentration of 100 nM. […] After capturing ligand (antibody) on the anti-Fc surface, the analyte (human TF, Lake Pharma; cynomolgus TF, Sino Bio #90885-C08H; mouse TF, R&D Systems #3178-PA) was bound for 180 seconds, followed by a 420 second dissociation phase at a flow rate of […]. Between each ligand capture and analyte binding cycle, regeneration was carried out using 2 injections of 10 mM glycine pH 2.0 for 30 seconds at 30 μL/min, followed by a 30 second buffer wash step.

[3] = molecular target: T3, human tissue factor (human TF, Lake Pharma) (human, UniProt P13726 33-251, limits assumed); experiment: as above
T3 construct: bought recombinant antigen; also called CD142
Procedure: as §1, §2

[4] = molecular target: tissue factor reagent of the Tissue Factor Activity Assay Kit (Abcam #ab108906) (UniProt P13726 33-295, limits assumed); experiment: cell-based or functional assay

Row | Binder | Bmax (MFI) [1] | Kd [1] | koff [2] | koff [3] | FX conversion (% inhibition), 1000 nM antibody [4]
1 | B1 | 39000 MFI | 89 pM | 0.00127 s⁻¹ | 0.000303 s⁻¹ | 2.54%
2 | B2 | 34900 MFI | 58 pM | 0.00141 s⁻¹ | 0.000604 s⁻¹ | 2.29%

From patent US20250122306A1 (SUTRO BIOPHARMA, published 2025)
